pIC50: −log10 of the molar value. The IC50 comes from the fitted curve, where viability falls to half of the control; where the fit passes the top or lowest dose, that dose stands as a limit. For AUC the same curve is integrated over the 256-fold range of doses and scaled to a fraction; the more sensitive the line, the further below 1. For some of these results: An inferred top dose comes from the curve model; the source does not state it. For some of these results: Drugs with an entry number were screened twice under separate entries, and the two screens often disagree.
Tests used:
Assay in all cases: Viability of human cancer cell lines after 72 h of drug (GDSC screen)
[1] = compound: Cc1ccc(NC(=O)c2cccc(C(C)(C)C#N)c2)cc1Nc1ccc2ncn(C)c(=O)c2c1 [AZ628]; details: top dose 4 µM; top dose inferred
Protocol: (§1)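 Human cancer cell lines in 384-well plates, medium with 10% serum, drug for 72 h over a 256-fold dose range (nine 2-fold or five 4-fold steps up to the top dose). Adherent lines were fixed and stained with the nucleic acid dye Syto60, suspension lines read with resazurin; signal relative to control wells, capped at 0 and 100%. One two-parameter sigmoid per drug and line, fitted in a mixed model over all curves with the slope shared within a line.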

[2] = compound: NC(=O)C1CCCc2c1[nH]c1ccc(Cl)cc21 [EX-527]; details: top dose 20 µM
Protocol: as §1

[3] = compound: N#CC(c1ccnc(NCCc2cccnc2)n1)c1nc2ccccc2s1 [AS601245]; details: top dose 8 µM; top dose inferred
Protocol: as §1

[4] = compound: Nc1ccc(C(=O)Nc2cccc(-c3nc(N4CCOCC4)c4oc5ncccc5c4n3)c2)cn1 [YM201636]; details: top dose 5.12 µM; top dose inferred
Protocol: as §1

[5] = compound: Cn1cnc2c(F)c(Nc3ccc(Br)cc3Cl)c(C(=O)NOCCO)cc21 [AZD6244]; details: top dose 4 µM; screen: GDSC drug entry 1498; top dose inferred
Protocol: as §1

Cell Line	AUC [1]	pIC50 [1]	AUC [2]	pIC50 [2]	AUC [3]	pIC50 [3]	AUC [4]	pIC50 [4]	AUC [5]	pIC50 [5]
CCRF-CEM (lymphoblastic leukaemia, suspension)	0.908	< 5.40	0.989	< 4.70	0.884	5.21	0.825	5.61	0.943	< 5.40
CESS (acute myeloid leukaemia, suspension)	0.88	5.51	0.99	< 4.70	0.863	5.27	0.661	6.08	0.973	< 5.40
CHP-126 (neuroblastoma, suspension)	0.983	< 5.40	0.977	< 4.70	0.91	< 5.10	0.889	< 5.29	0.986	< 5.40
CL-11 (large intestine, adherent)	0.754	5.82	0.984	< 4.70	0.987	< 5.10	0.986	< 5.29	0.345	7.06
CMK (acute myeloid leukaemia, suspension)	0.988	< 5.40	0.982	< 4.70	0.737	5.68	0.84	5.56	0.985	< 5.40
COLO-320-HSR (large intestine, suspension)	0.99	< 5.40	0.982	< 4.70	0.919	< 5.10	0.793	5.70	0.99	< 5.40
COLO-668 (small cell lung carcinoma, adherent)	0.935	< 5.40	0.989	< 4.70	0.836	5.28	0.927	< 5.29	0.946	< 5.40
COLO-684 (endometrium, suspension)	0.967	< 5.40	0.984	< 4.70	0.859	5.10	0.734	5.79	0.973	< 5.40
COLO-800 (melanoma, adherent)	0.887	< 5.40	0.985	< 4.70	0.988	< 5.10	0.942	< 5.29	0.97	< 5.40
COLO-824 (breast, adherent)	0.95	< 5.40	0.983	< 4.70	0.887	< 5.10	0.934	< 5.29	0.979	< 5.40
COLO-829 (melanoma, adherent)	0.291	7.32	0.961	< 4.70	0.875	< 5.10	0.94	< 5.29	0.727	5.82
COR-L88 (small cell lung carcinoma, adherent)	0.956	< 5.40	0.984	< 4.70	0.977	< 5.10	0.895	< 5.29	0.965	< 5.40
COR-L95 (small cell lung carcinoma, adherent)	0.958	< 5.40	0.986	< 4.70	0.955	< 5.10	0.915	< 5.29	0.984	< 5.40
COR-L279 (small cell lung carcinoma, suspension)	0.974	< 5.40	0.944	< 4.70	0.976	< 5.10	0.926	< 5.29	0.99	< 5.40
CP66-MEL (melanoma, adherent)	0.42	6.84	0.98	< 4.70	0.95	< 5.10	0.879	< 5.29	0.249	7.37
CPC-N (small cell lung carcinoma, suspension)	0.889	< 5.40	0.984	< 4.70	0.925	< 5.10	0.89	< 5.29	0.983	< 5.40
CTB-1 (B-cell lymphoma, suspension)	0.87	< 5.40	0.977	< 4.70	0.95	< 5.10	0.709	5.80	0.915	< 5.40
CTV-1 (acute myeloid leukaemia, suspension)	0.767	5.92	0.984	< 4.70	0.766	5.62	0.773	5.79	0.975	< 5.40
CW-2 (large intestine, adherent)	0.979	< 5.40	0.986	< 4.70	0.989	< 5.10	0.944	< 5.29	0.932	< 5.40
D-263MG (glioma, adherent)	0.807	5.59	0.976	< 4.70	0.976	< 5.10	0.961	< 5.29	0.706	5.97

Cell Line	AUC [1]	pIC50 [1]	AUC [2]	pIC50 [2]	AUC [3]	pIC50 [3]	AUC [4]	pIC50 [4]	AUC [5]	pIC50 [5]
D-283MED (medulloblastoma, adherent)	0.974	< 5.40	0.99	< 4.70	0.924	< 5.10	0.991	< 5.29	0.988	< 5.40
D-392MG (glioma, adherent)	0.54	6.48	0.96	< 4.70	0.897	< 5.10	0.892	< 5.29	0.853	< 5.40
D-502MG (glioma, adherent)	0.732	5.77	0.94	< 4.70	0.966	< 5.10	0.917	< 5.29	0.661	6.04
DB (B-cell lymphoma, suspension)	0.946	< 5.40	0.952	< 4.70	0.904	< 5.10	0.699	5.90	0.98	< 5.40
DEL (lymphoid neoplasm, suspension)	0.991	< 5.40	0.967	< 4.70	0.843	5.40	0.98	< 5.29	0.993	< 5.40
DG-75 (Burkitt lymphoma, suspension)	0.977	< 5.40	0.974	< 4.70	0.982	< 5.10	0.897	< 5.29	0.959	< 5.40
DJM-1 (skin, adherent)	0.907	< 5.40	0.987	< 4.70	0.955	< 5.10	0.95	< 5.29	0.955	< 5.40
DMS-79 (small cell lung carcinoma, suspension)	0.978	< 5.40	0.987	< 4.70	0.983	< 5.10	0.942	< 5.29	0.979	< 5.40
DMS-114 (small cell lung carcinoma, adherent)	0.947	< 5.40	0.977	< 4.70	0.967	< 5.10	0.902	< 5.29	0.942	< 5.40
DSH1 (bladder, adherent)	0.901	< 5.40	0.989	< 4.70	0.91	< 5.10	0.907	< 5.29	0.982	< 5.40
DU-4475 (breast, suspension)	0.147	7.56	0.983	< 4.70	0.883	5.23	0.881	5.43	0.244	7.26
Daudi (Burkitt lymphoma, suspension)	0.924	< 5.40	0.989	< 4.70	0.848	5.32	0.873	5.41	0.99	< 5.40
EB2 (Burkitt lymphoma, suspension)	0.861	5.54	0.985	< 4.70	0.864	5.23	0.782	5.71	0.988	< 5.40
EB-3 (Burkitt lymphoma, suspension)	0.9	< 5.40	0.968	< 4.70	0.903	< 5.10	0.752	5.71	0.976	< 5.40
EC-GI-10 (oesophagus, adherent)	0.989	< 5.40	0.989	< 4.70	0.973	< 5.10	0.965	< 5.29	0.869	5.44
EJM (lymphoid neoplasm, semi-adherent)	0.976	< 5.40	0.985	< 4.70	0.909	< 5.10	0.909	< 5.29	0.984	< 5.40
EKVX (lung adenocarcinoma, adherent)	0.926	< 5.40	0.948	< 4.70	0.843	< 5.10	0.956	< 5.29	0.865	< 5.40
EM-2 (chronic myeloid leukaemia, suspension)	0.481	6.66	0.979	< 4.70	0.87	< 5.10	0.905	< 5.29	0.49	6.63
ES1 (Ewing sarcoma, adherent)	0.891	< 5.40	0.961	< 4.70	0.908	< 5.10	0.613	6.19	0.97	< 5.40
ES3 (Ewing sarcoma, adherent)	0.923	< 5.40	0.977	< 4.70	0.868	< 5.10	0.739	5.79	0.973	< 5.40

From the supplement of paper PMC4967469
